Laboratory results from PubChem BioAssay AID485281 (National Center for Advancing Translational Sciences (NCATS), 2010).
The whole screen tested about 350,000 compounds, of which about 260 (0.074%) were called active. This list was built around the results that the source calls inconclusive (neither active nor inactive); the mix of calls is not that of the screen. The call rests on the fitted dose curve; in most records, active means well fitted inhibition curve with a large enough effect; inconclusive means small, poorly fitted or top-dose-only effect; inactive means no such curve, though single readings can be large or run the other way. Potencies of inconclusive entries are doubtful fits and often do not repeat.

The compounds below were run against Ferritin light chain (Equus caballus) (UniProt P02791) (assay: qHTS Assay for Identification of Novel General Anesthetics). Conditions: apoferritin/1-aminoanthracene competitive binding, fluorescence; series mostly up to 77.5 µM.
Method in brief: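 Read-out: endpoint 1-AMA fluorescence, excitation 380 nm and emission 535 nm, after compounds sit 10 min at room temperature with 10 uM horse-spleen apoferritin in 50% saturated 1-AMA/PBS. Values come from four-parameter Hill fits.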
Further: nearly all actives have a fitted effect of over 20% in size.
Potency means the concentration at half of the fitted maximal effect; tags describe the fitted curve by direction and shape.

Chain of UniProt P02791 (P02791 whole entry, looked up): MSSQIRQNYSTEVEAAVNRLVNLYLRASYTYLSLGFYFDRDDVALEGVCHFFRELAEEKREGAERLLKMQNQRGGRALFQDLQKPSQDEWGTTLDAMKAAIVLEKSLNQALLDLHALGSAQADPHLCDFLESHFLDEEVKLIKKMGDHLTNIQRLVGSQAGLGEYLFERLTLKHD

Compound	Potency
COc1ccc(C)cc1S(=O)(=O)N1CCC(C(=O)NCCC2=CCCCC2)CC1	inconclusive: 31.6 µM [inhibitor, single point]
C/C(=N\NC(=S)Nc1c(C)cccc1C)c1cc2ccccc2o1	inactive
COc1ccc(C2=CC(=O)N(Nc3ccccc3)C2=O)cc1	inconclusive: 22.4 µM [inhibitor, partial curve]
COC(=O)c1ccccc1COn1c(=O)c[n+]([O-])c2ccccc21	inactive
COc1ccc2ccccc2c1-c1sc(Nc2ccccc2)n[n+]1-c1ccc(F)cc1	inconclusive: 11.2 µM [inhibitor, partial curve]
CC(C)C[C@H](NC(=O)c1nc[nH]c1C(=O)N[C@@H](CCCCNC(=O)OC(C)(C)C)C(=O)OC(C)(C)C)C(=O)OC(C)(C)C	inactive
CCN(CC)C(=O)CSc1nc(N)c2c3c(sc2n1)CC(C)CC3 (centres undefined)	inconclusive: 39.8 µM [inhibitor, partial curve]
CCn1ccnc1CNC(=O)c1ccc2oc(CCCc3ccccc3)nc2c1	inconclusive: 39.8 µM [inhibitor, single point]
COc1ccc(NC(=O)CSc2nnc(C3CCCCC3)n2N)c(OC)c1	inconclusive: 17.8 µM [inhibitor, partial curve]
CCN(CC)S(=O)(=O)c1cccc(S(=O)(=O)c2cccc(S(=O)(=O)N(CC)CC)c2)c1	inconclusive: 12.6 µM [inhibitor, partial curve]
COc1ccc(C(=O)NCCC2=CCCCC2)cc1OC	inconclusive: 39.8 µM [inhibitor, partial curve]
CCn1c2ccccc2c2cc(CN3CCN(C(=O)c4ccco4)CC3)ccc21	inconclusive: 100 µM [inhibitor, partial curve]
CCC1CCCCN1S(=O)(=O)c1ccc([N+](=O)[O-])cc1 (centres undefined)	inconclusive: 20 µM [inhibitor, partial curve]
Oc1ccc(NCc2cccc(OCc3ccccc3)c2)cc1	inconclusive: 15.8 µM [inhibitor, partial curve]
CCOc1ccc(NC(=O)CNC(=O)c2cn(-c3ccccc3OC)c(=O)c3ccccc23)cc1	inconclusive: 12.6 µM [inhibitor, partial curve]
C=CCN1C(=O)/C(=C2/Sc3ccc(OC)cc3N2C)SC1=Nc1cccc(O)c1	inactive
COc1ccccc1NC(=O)Cn1nc(-c2ccc3c(c2)OCCO3)ccc1=O	active: 11.2 µM
Cc1ccc(C2(C)NC(=O)N(CC(=O)NC(=O)NCCC(C)C)C2=O)cc1 (centres undefined)	inconclusive: 25.1 µM [inhibitor, partial curve]
CCOCCCNC(=O)/C(C#N)=C/c1cc(OC)c(O)c([N+](=O)[O-])c1	inconclusive: 50.1 µM [inhibitor, single point]
Cc1c2cnn(CC(=O)N3CCN(c4ccc(F)cc4)CC3)c(=O)c2c(C)n1Cc1ccc(F)cc1	inconclusive: 3.98 µM [inhibitor, full curve]
C/C(=N\NC(=S)NCC(C)(C)C)c1cc(F)cc(F)c1O	inactive
COC(=O)c1ccccc1NC(=O)NN1CCN(C)CC1	inconclusive: 25.1 µM [inhibitor, partial curve]

Compound	Potency
CC1Cc2ccccc2N1C(=O)COC(=O)Cn1cnc2ccccc2c1=O (centres undefined)	inconclusive: 22.4 µM [inhibitor, partial curve]
C=CCc1cccc(CNc2c(C)cc(C)cc2C)c1O	inconclusive: 20 µM [inhibitor, partial curve]
CCC1=NNc2cccc3c(OC)ccc1c23	inconclusive: 35.5 µM [inhibitor, partial curve]
COc1cc(/C=N/NC(=O)c2cc(-c3ccccc3)nc3ccccc23)ccc1O	inconclusive: 8.91 µM [inhibitor, partial curve]
CCOC(=O)N1CCc2c(sc(NC(=O)c3ccc(S(=O)(=O)N4CCCC4)cc3)c2C#N)C1	inactive
COc1ccccc1CNC(=O)CCn1c(=O)c2ccccc2n(CC(=O)Nc2cccc(Cl)c2)c1=O	inactive
CCOC(=O)C1CCCN(C(=O)Nc2ccccc2)C1 (centres undefined)	inactive
O=[N+]([O-])c1ccccc1-c1ccc(/C=N/n2cnnc2)o1	inactive
CCOC(=O)c1ccccc1NC(=O)C(=O)Nc1ccc2nc3n(c(=O)c2c1)CCCCC3	inconclusive: 1 µM [inhibitor, full curve]
COc1ccc(C(O)c2nc3ccccc3s2)cc1 (centres undefined)	inconclusive: 31.6 µM [inhibitor, partial curve]
Cc1cc(C)c2nc(-c3ccncc3)cc(C(=O)N3CCN(Cc4ccccc4Cl)CC3)c2c1	inconclusive: 20 µM [inhibitor, partial curve]
O=c1oc2cc(Cl)ccc2n1CSc1nc2ccccc2s1	inactive
Cc1ccc(O)c(C(CC(=O)NCC2(c3ccccc3)CCCC2)c2ccccc2)c1 (centres undefined)	inactive
COC(=O)CCC(=O)OC1(C)C(=O)C2=CN(C(CO)CO)C(c3ccc(OC)cc3)=CC2=C(Br)C1=O (centres undefined)	inactive
Cc1cccc(NS(=O)(=O)c2cccc3nsnc23)c1	inconclusive: 31.6 µM [inhibitor, partial curve]
CCOC(=O)Cc1csc(NC(=O)COc2ccc(OC)cc2)n1	inactive
Cc1coc(C)c1C(=O)CC1(O)C(=O)Nc2cc(Cl)cc(Cl)c21 (centres undefined)	inconclusive: 22.4 µM [inhibitor, partial curve]
ONC=Nc1cccc2nonc12	inconclusive: 44.7 µM [inhibitor, partial curve]
CCC(=O)N(CCC(c1ccccc1)c1ccco1)Cc1cccs1 (centres undefined)	inconclusive: 28.2 µM [inhibitor, partial curve]
CN(CC(=O)NCCC1=CCCCC1)S(=O)(=O)c1ccc2c(c1)c(=O)n(C)c(=O)n2C	inconclusive: 25.1 µM [inhibitor, single point]
CCN(CC)C(=O)C1CC(c2ccc(OC)cc2)=NO1 (centres undefined)	inactive
O=C(c1ccc2c(c1)OCO2)N1CCN=C1SCc1cccnc1	inconclusive: 50.1 µM [inhibitor, single point]
